# According to the supplement of paper PMC8728848:
# The list shows a part of the results.
# B1: Dectin2 (Homo sapiens), Q6EIG7 (protein)
# chain: MMQEQQPQSTEKRGWLSLRLWSVAGISIALLSACFIVSCVVTYHFTYGETGKRLSELHSYHSSLTCFSEGTKVPAWGCCPASWKSFGSSCYFISSEEKVWSKSEQNCVEMGAHLVVFNTEAEQNFIVQQLNESFSYFLGLSDPQGNNNWQWIDKTPYEKNVRFWHLGEPNHSAEQCASIVFWKPTGWGWNDVICETRRNSICEMNKIYL
# Legend:
# Experiment in all cases: glycan array binding signal (z-score within array); higher = stronger binding
# Conditions in all cases: glycan notation: IUPAC condensed, linker removed
# Glc(b1-4)Glc = molecular target: Glc(b1-4)Glc
# Procedure, shortened: (§1)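 The binding signal is a Z-score computed within each array and averaged over linkers. Arrays of the same protein sequence at different concentrations or buffers were also averaged together. Data originate from 3228 arrays in the Consortium for Functional Glycomics database, kept only where the protein sequence was available.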
# Glc(b1-6)Glc = molecular target: Glc(b1-6)Glc
# Procedure, shortened: as §1
# GlcA(b1-3)Gal = molecular target: GlcA(b1-3)Gal
# Procedure, shortened: as §1
# GlcA(b1-3)GlcNAc = molecular target: GlcA(b1-3)GlcNAc
# Procedure, shortened: as §1
# GlcA(b1-6)Gal = molecular target: GlcA(b1-6)Gal
# Procedure, shortened: as §1
# [1] = molecular target: GlcA3S(b1-3)Gal(b1-4)GlcNAc(b1-2)Man
# Procedure, shortened: as §1
# [2] = molecular target: GlcA3S(b1-3)Gal(b1-4)GlcNAc(b1-3)Gal(b1-4)Glc
# Procedure, shortened: as §1
# [3] = molecular target: GlcNAc(a1-3)Gal(b1-4)GlcNAc
# Procedure, shortened: as §1
# [4] = molecular target: GlcNAc(a1-4)Gal(b1-3)GlcNAc
# Procedure, shortened: as §1
# [5] = molecular target: GlcNAc(a1-4)Gal(b1-4)GalNAc
# Procedure, shortened: as §1
# [6] = molecular target: GlcNAc(a1-4)Gal(b1-4)GlcNAc
# Procedure, shortened: as §1
# [7] = molecular target: GlcNAc(a1-4)Gal(b1-4)GlcNAc(b1-3)Gal(b1-4)Glc
# Procedure, shortened: as §1
# [8] = molecular target: GlcNAc(a1-4)Gal(b1-4)GlcNAc(b1-3)Gal(b1-4)GlcNAc
# Procedure, shortened: as §1
# [9] = molecular target: GlcNAc(a1-4)Gal(b1-4)GlcNAc(b1-3)Gal(b1-4)GlcNAc(b1-3)Gal(b1-4)GlcNAc
# Procedure, shortened: as §1
# [10] = molecular target: GlcNAc(a1-4)Gal(b1-4)GlcNAc(b1-3)Gal(b1-4)[Fuc(a1-3)]GlcNAc(b1-3)Gal(b1-4)[Fuc(a1-3)]GlcNAc
# Procedure, shortened: as §1
# [11] = molecular target: GlcNAc(a1-6)Gal(b1-4)GlcNAc
# Procedure, shortened: as §1
# [12] = molecular target: GlcNAc(b1-2)Gal(b1-3)GalNAc
# Procedure, shortened: as §1
# [13] = molecular target: GlcNAc(b1-2)Man(a1-3)[GlcNAc(b1-2)Man(a1-6)]Man(b1-4)GlcNAc(b1-4)GlcNAc
# Procedure, shortened: as §1
# [14] = molecular target: GlcNAc(b1-2)Man(a1-3)[GlcNAc(b1-2)Man(a1-6)]Man(b1-4)GlcNAc(b1-4)[Fuc(a1-6)]GlcNAc
# Procedure, shortened: as §1
# [15] = molecular target: GlcNAc(b1-2)Man(a1-3)[GlcNAc(b1-4)][GlcNAc(b1-2)Man(a1-6)]Man(b1-4)GlcNAc(b1-4)GlcNAc
# Procedure, shortened: as §1
# [16] = molecular target: GlcNAc(b1-2)Man(a1-3)[GlcNAc(b1-4)][GlcNAc(b1-2)Man(a1-6)]Man(b1-4)GlcNAc(b1-4)[Fuc(a1-6)]GlcNAc
# Procedure, shortened: as §1
# [17] = molecular target: GlcNAc(b1-2)[GlcNAc(b1-4)]Man(a1-3)[GlcNAc(b1-2)Man(a1-6)]Man(b1-4)GlcNAc(b1-4)GlcNAc
# Procedure, shortened: as §1
# [18] = molecular target: GlcNAc(b1-2)[GlcNAc(b1-4)]Man(a1-3)[GlcNAc(b1-4)][GlcNAc(b1-2)Man(a1-6)]Man(b1-4)GlcNAc(b1-4)GlcNAc
# Procedure, shortened: as §1
# [19] = molecular target: GlcNAc(b1-2)[GlcNAc(b1-4)]Man(a1-3)[GlcNAc(b1-4)][GlcNAc(b1-2)[GlcNAc(b1-6)]Man(a1-6)]Man(b1-4)GlcNAc(b1-4)GlcNAc
# Procedure, shortened: as §1
# [20] = molecular target: GlcNAc(b1-2)[GlcNAc(b1-4)]Man(a1-3)[GlcNAc(b1-4)][GlcNAc(b1-2)[GlcNAc(b1-6)]Man(a1-6)]Man(b1-4)GlcNAc(b1-4)[Fuc(a1-6)]GlcNAc
# Procedure, shortened: as §1
# [21] = molecular target: GlcNAc(b1-2)[GlcNAc(b1-6)]Man(a1-6)[GlcNAc(b1-2)Man(a1-3)]Man(b1-4)GlcNAc(b1-4)GlcNAc
# Procedure, shortened: as §1
# [22] = molecular target: GlcNAc(b1-2)[GlcNAc(b1-6)]Man(a1-6)[GlcNAc(b1-2)Man(a1-3)]Man(b1-4)GlcNAc(b1-4)[Fuc(a1-6)]GlcNAc
# Procedure, shortened: as §1
# [23] = molecular target: GlcNAc(b1-2)[GlcNAc(b1-6)]Man(a1-6)[GlcNAc(b1-4)][GlcNAc(b1-2)Man(a1-3)]Man(b1-4)GlcNAc(b1-4)GlcNAc
# Procedure, shortened: as §1
# GlcNAc(b1-3)Fuc = molecular target: GlcNAc(b1-3)Fuc
# Procedure, shortened: as §1
# GlcNAc(b1-3)Gal = molecular target: GlcNAc(b1-3)Gal
# Procedure, shortened: as §1
# [24] = molecular target: GlcNAc(b1-3)Gal(b1-3)GalNAc
# Procedure, shortened: as §1
# GlcNAc(b1-3)Gal(b1-4)Glc = molecular target: GlcNAc(b1-3)Gal(b1-4)Glc
# Procedure, shortened: as §1
# [25] = molecular target: GlcNAc(b1-3)Gal(b1-4)GlcNAc
# Procedure, shortened: as §1
# [26] = molecular target: GlcNAc(b1-3)Gal(b1-4)GlcNAc(b1-2)Man(a1-3)[GlcNAc(b1-3)Gal(b1-4)GlcNAc(b1-2)Man(a1-6)]Man(b1-4)GlcNAc(b1-4)GlcNAc
# Procedure, shortened: as §1
# [27] = molecular target: GlcNAc(b1-3)Gal(b1-4)GlcNAc(b1-2)Man(a1-3)[GlcNAc(b1-3)Gal(b1-4)GlcNAc(b1-2)Man(a1-6)]Man(b1-4)GlcNAc(b1-4)[Fuc(a1-6)]GlcNAc
# Procedure, shortened: as §1
# [28] = molecular target: GlcNAc(b1-3)Gal(b1-4)GlcNAc(b1-2)[GlcNAc(b1-3)Gal(b1-4)GlcNAc(b1-6)]Man(a1-6)[GlcNAc(b1-3)Gal(b1-4)GlcNAc(b1-2)Man(a1-3)]Man(b1-4)GlcNAc(b1-4)GlcNAc
# Procedure, shortened: as §1
# [29] = molecular target: GlcNAc(b1-3)Gal(b1-4)GlcNAc(b1-3)Gal(b1-4)GlcNAc
# Procedure, shortened: as §1
# [30] = molecular target: GlcNAc(b1-3)Gal(b1-4)GlcNAc(b1-3)Gal(b1-4)GlcNAc(b1-2)Man(a1-3)[GlcNAc(b1-3)Gal(b1-4)GlcNAc(b1-3)Gal(b1-4)GlcNAc(b1-2)Man(a1-6)]Man(b1-4)GlcNAc(b1-4)GlcNAc
# Procedure, shortened: as §1
# [31] = molecular target: GlcNAc(b1-3)Gal(b1-4)GlcNAc(b1-3)Gal(b1-4)GlcNAc(b1-2)Man(a1-3)[GlcNAc(b1-3)Gal(b1-4)GlcNAc(b1-3)Gal(b1-4)GlcNAc(b1-2)Man(a1-6)]Man(b1-4)GlcNAc(b1-4)[Fuc(a1-6)]GlcNAc
# Procedure, shortened: as §1
# [32] = molecular target: GlcNAc(b1-3)Gal(b1-4)GlcNAc(b1-3)Gal(b1-4)GlcNAc(b1-2)[GlcNAc(b1-3)Gal(b1-4)GlcNAc(b1-3)Gal(b1-4)GlcNAc(b1-6)]Man(a1-6)[GlcNAc(b1-3)Gal(b1-4)GlcNAc(b1-3)Gal(b1-4)GlcNAc(b1-2)Man(a1-3)]Man(b1-4)GlcNAc(b1-4)[Fuc(a1-6)]GlcNAc
# Procedure, shortened: as §1
# [33] = molecular target: GlcNAc(b1-3)Gal(b1-4)GlcNAc(b1-3)Gal(b1-4)GlcNAc(b1-3)Gal(b1-4)GlcNAc(b1-2)Man(a1-3)[GlcNAc(b1-3)Gal(b1-4)GlcNAc(b1-3)Gal(b1-4)GlcNAc(b1-3)Gal(b1-4)GlcNAc(b1-2)Man(a1-6)]Man(b1-4)GlcNAc(b1-4)GlcNAc
# Procedure, shortened: as §1
# [34] = molecular target: GlcNAc(b1-3)Gal(b1-4)GlcNAc(b1-3)Gal(b1-4)GlcNAc(b1-3)Gal(b1-4)GlcNAc(b1-2)Man(a1-3)[GlcNAc(b1-3)Gal(b1-4)GlcNAc(b1-3)Gal(b1-4)GlcNAc(b1-3)Gal(b1-4)GlcNAc(b1-2)Man(a1-6)]Man(b1-4)GlcNAc(b1-4)[Fuc(a1-6)]GlcNAc
# Procedure, shortened: as §1
# [35] = molecular target: GlcNAc(b1-3)Gal(b1-4)GlcNAc(b1-3)Gal(b1-4)GlcNAc(b1-3)Gal(b1-4)GlcNAc(b1-2)[GlcNAc(b1-3)Gal(b1-4)GlcNAc(b1-3)Gal(b1-4)GlcNAc(b1-3)Gal(b1-4)GlcNAc(b1-6)]Man(a1-6)[GlcNAc(b1-3)Gal(b1-4)GlcNAc(b1-3)Gal(b1-4)GlcNAc(b1-3)Gal(b1-4)GlcNAc(b1-2)Man(a1-3)]Man(b1-4)GlcNAc(b1-4)[Fuc(a1-6)]GlcNAc
# Procedure, shortened: as §1
# [36] = molecular target: GlcNAc(b1-3)Gal(b1-4)GlcNAc(b1-3)Gal(b1-4)GlcNAc(b1-3)Gal(b1-4)GlcNAc(b1-3)Gal(b1-4)GlcNAc(b1-2)Man(a1-3)[GlcNAc(b1-3)Gal(b1-4)GlcNAc(b1-3)Gal(b1-4)GlcNAc(b1-3)Gal(b1-4)GlcNAc(b1-3)Gal(b1-4)GlcNAc(b1-2)Man(a1-6)]Man(b1-4)GlcNAc(b1-4)GlcNAc
# Procedure, shortened: as §1
# [37] = molecular target: GlcNAc(b1-3)Gal(b1-4)GlcNAc(b1-3)Gal(b1-4)GlcNAc(b1-3)Gal(b1-4)GlcNAc(b1-3)Gal(b1-4)GlcNAc(b1-2)Man(a1-3)[GlcNAc(b1-3)Gal(b1-4)GlcNAc(b1-3)Gal(b1-4)GlcNAc(b1-3)Gal(b1-4)GlcNAc(b1-3)Gal(b1-4)GlcNAc(b1-2)Man(a1-6)]Man(b1-4)GlcNAc(b1-4)[Fuc(a1-6)]GlcNAc
# Procedure, shortened: as §1
binder,measurement,setting,value
B1,glycan array binding signal (z-score),Glc(b1-4)Glc,-0.067
same,glycan array binding signal (z-score),Glc(b1-6)Glc,-0.072
same,glycan array binding signal (z-score),GlcA(b1-3)Gal,-0.166
same,glycan array binding signal (z-score),GlcA(b1-3)GlcNAc,-0.186
same,glycan array binding signal (z-score),GlcA(b1-6)Gal,-0.142
same,glycan array binding signal (z-score),[1],-0.186
same,glycan array binding signal (z-score),[2],-0.198
same,glycan array binding signal (z-score),[3],-0.186
same,glycan array binding signal (z-score),[4],-0.19
same,glycan array binding signal (z-score),[5],-0.154
same,glycan array binding signal (z-score),[6],-0.173
same,glycan array binding signal (z-score),[7],-0.198
same,glycan array binding signal (z-score),[8],-0.165
same,glycan array binding signal (z-score),[9],-0.198
same,glycan array binding signal (z-score),[10],-0.102
same,glycan array binding signal (z-score),[11],-0.204
same,glycan array binding signal (z-score),[12],-0.189
same,glycan array binding signal (z-score),[13],-0.118
same,glycan array binding signal (z-score),[14],-0.008
same,glycan array binding signal (z-score),[15],-0.143
same,glycan array binding signal (z-score),[16],-0.195
same,glycan array binding signal (z-score),[17],-0.187
same,glycan array binding signal (z-score),[18],-0.198
same,glycan array binding signal (z-score),[19],-0.2
same,glycan array binding signal (z-score),[20],-0.184
same,glycan array binding signal (z-score),[21],-0.15
same,glycan array binding signal (z-score),[22],-0.01
same,glycan array binding signal (z-score),[23],-0.2
same,glycan array binding signal (z-score),GlcNAc(b1-3)Fuc,-0.122
same,glycan array binding signal (z-score),GlcNAc(b1-3)Gal,-0.122
same,glycan array binding signal (z-score),[24],-0.16
same,glycan array binding signal (z-score),GlcNAc(b1-3)Gal(b1-4)Glc,-0.166
same,glycan array binding signal (z-score),[25],-0.189
same,glycan array binding signal (z-score),[26],-0.138
same,glycan array binding signal (z-score),[27],-0.001
same,glycan array binding signal (z-score),[28],0.193
same,glycan array binding signal (z-score),[29],-0.204
same,glycan array binding signal (z-score),[30],0.249
same,glycan array binding signal (z-score),[31],0.049
same,glycan array binding signal (z-score),[32],0.131
same,glycan array binding signal (z-score),[33],-0.049
same,glycan array binding signal (z-score),[34],0.028
same,glycan array binding signal (z-score),[35],0.209
same,glycan array binding signal (z-score),[36],-0.038
same,glycan array binding signal (z-score),[37],-0.079
